Results as given in PubChem BioAssay AID624296 (National Center for Advancing Translational Sciences (NCATS), 2012).
Screen size: about 350,000 compounds; about 9,900 (2.8%) were called active. Inconclusive results, whose numbers are uncertain, are shown with a selection of clear calls. The call rests on the fitted dose curve; in most records, active means well fitted activation curve with a large enough effect; inconclusive means small, poorly fitted or top-dose-only effect; inactive means no such curve, though single readings can be large or run the other way. Potencies of inconclusive entries are left out as doubtful fits.

test: A quantitative high throughput screen for small molecules that induce DNA re-replication in MCF 10a normal breast cells.; further: nearly all actives have a fitted effect of over 50% in size; on activity, positive = re-replication: % of control where 0% means no effect; conditions: MCF 10A DNA re-replication, Hoechst nuclear intensity, 48 h; activity, positive = re-replication: at 46.1 µM (top of the series)
Potency means the concentration at half of the fitted maximal effect; tags describe the fitted curve by direction and shape.

Row | SMILES | Potency | activity, positive = re-replication
1 | CCOC(=O)C#CC(CCc1ccccc1)OS(N)(=O)=O (configuration not stated) | active: 5.17 µM | 
2 | COc1ccc(CN2CCC(n3nccc3NC(=O)CCOc3ccccc3)CC2)cc1C | inconclusive [activator, partial curve, poor fit] | 
3 | COc1ccc(-c2cc(C(=O)NNC(=O)c3csc(N4CCOCC4)n3)c3ccccc3n2)cc1OC | inconclusive [activator, single point] | 
4 | Nc1ncnc2c1ncn2[C@@H]1O[C@H](CNCC#Cc2ccccc2)[C@@H](O)[C@H]1O | inconclusive [activator, single point] | 
5 | Cc1ccc(NC2=CC(=O)CC(C)(C)C2)cc1Cl | inconclusive [activator, single point] | 
6 | O=C(/C=C/Nc1cccc([N+](=O)[O-])c1)c1ccco1 | inactive | 
7 | CCOc1ccc(OCC(=O)c2c(O)c3ccccc3oc2=O)cc1 | inconclusive [activator, partial curve, poor fit] | 
8 | O=C(NC(NNc1ccc([N+](=O)[O-])cc1)(C(F)(F)F)C(F)(F)F)c1ccc(Cl)cc1 | active: 14.6 µM | 
9 | CC(C)CSc1nc2ccccc2n1CC(=O)O | inconclusive [activator, partial curve, poor fit] | 
10 | NC(=O)c1c(NC(=O)c2ccccc2)sc2c1CCN(Cc1ccccc1)C2 | inconclusive [activator, single point] | 
11 | O=C1CN(C(=O)c2ccccc2C(=O)O)c2ccccc2N1 | inconclusive [activator, single point] | 
12 | CC[n+]1c(/C=C2/C=C(C)CC(C)(C)C2)sc2ccc(OC)cc21 | active: 16.4 µM | 
13 | OC[C@@H]1[C@@H](c2ccccc2)C(c2cccc(Cl)c2)=NN1c1ccccc1 | inconclusive [activator, partial curve, poor fit] | 
14 | Cc1nc(S(=O)(=O)Nc2ccc3c(c2)OCCO3)cn1C | inconclusive [activator, partial curve, poor fit] | 
15 | Cc1cc2oc3ccc(NCCCn4ccnc4)cc3c(=O)c2cc1C | inconclusive [activator, partial curve, poor fit] | 
16 | NCCSc1c(-c2ccc(Cl)cc2)[nH]c2ccccc12 | inconclusive [activator, partial curve, poor fit] | 
17 | CCOC(=O)c1c(NC(=O)CSc2nc3c(c(=O)n(C)c(=O)n3C)n2C(C)C)sc(C)c1C | inconclusive [activator, full curve, poor fit] | 
18 | CCN(CC)c1ccc(/C=N/NC(=O)c2cccc(N3CCCC3=O)c2)cc1 | inconclusive [activator, partial curve, poor fit] | 
19 | COC(=O)c1c(NC(=O)CC2Nc3ccccc3NC2=O)sc(C)c1C (configuration not stated) | active: 10.3 µM | 
20 | CCOc1ccc(-c2nnc(NC3=NCCCCC3)o2)cc1 | inactive | 
21 | CC(c1ccccc1)N(CCC(c1ccccc1)C1CCOC(C)(C)C1)C(=O)c1ccco1 (configuration not stated) | active: 16.4 µM | 

Row | SMILES | Potency | activity, positive = re-replication
22 | N#Cc1c(-c2ccccc2)cc(-c2cccs2)nc1SCC(=O)O | inactive | 
23 | COc1ccc(Cl)cc1N(CC(=O)Nc1ccc2c(c1)OCCO2)S(C)(=O)=O | inconclusive [activator, single point] | 
24 | COc1ccc(Nc2nc(N3CCN(S(=O)(=O)N(C)C)CC3)nc3ccccc23)cc1 | inconclusive [activator, single point] | 
25 | Cc1cccc(CSC2=CS(=O)(=O)c3ccccc3N2)c1 | inactive | 
26 | COc1ccc(Br)cc1CN1CCN(C(=O)c2ccc(OC)c(OC)c2)CC1 | inactive | 
27 | C=CCn1c(SCC(=O)Nc2c(C)n(C)n(-c3ccccc3)c2=O)nnc1-c1cccnc1 | inactive | 
28 | Cc1nn(Cc2ccccc2)c(Cl)c1C(=O)OCc1nnc(-c2ccccc2)o1 | inconclusive [activator, partial curve, poor fit] | 
29 | O=C(NCc1ccco1)c1cccn2c(=O)c3c4c(sc3nc12)CCCC4 | inconclusive [activator, partial curve] | 
30 | O=C(O)CC/C(=N/Nc1ccc([N+](=O)[O-])cc1)C(=O)O | inactive | 
31 | CCC/C=C1/CCCOC(C(=O)NCc2ccc(C)o2)(C(F)(F)F)C1 (configuration not stated) | inconclusive [activator, single point] | 
32 | FC(F)(F)c1cccc(Cc2noc(CN3CCCC(CN4CCCC4)C3)n2)c1 (configuration not stated) | inconclusive [activator, partial curve, poor fit] | 
33 | COc1ccc(C(=O)Nc2nc3cc4c(cc3s2)OCO4)c(OC)c1 | inconclusive [activator, partial curve, poor fit] | 
34 | COc1ccc(/C=C2/CCC(CN3CCOCC3)C2=O)cc1 (configuration not stated) | inconclusive [activator, full curve, poor fit] | 
35 | O=C(CSc1n[nH]c(-c2cccnc2)n1)Nc1cccc(Cl)c1 | inconclusive [activator, partial curve, poor fit] | 
36 | CCn1nc(C)cc1C(=O)N1CCCC(Nc2ccc(C(C)C)cc2)C1 (configuration not stated) | inconclusive [activator, single point] | 
37 | Nc1cc(S(=O)(=O)Nc2cc(Cl)ccc2Cl)ccc1N1CCCC1 | inconclusive [activator, single point] | 
38 | Cc1c(C(=O)Nc2ccccc2)cn2c(nc3ccccc32)c1C#N | inconclusive [activator, single point] | 
39 | Cc1ccc(NC(=O)CN(C)C(=O)/C=C/c2ccc3c(c2)OCO3)cc1 | inactive | 
40 | COc1ccc(-c2c(-c3cc(OC)cc(OC)c3)n(C)c3ccc(Br)cc23)cc1 | inconclusive [activator, single point] | 
41 | CC(=O)c1ccc(NC(=O)CN2CCN(S(=O)(=O)c3ccc4ccccc4c3)CC2)cc1 |  | inconclusive: 74% [activator]
42 | CCN(CCCCCCN)c1ccc2c(=O)[nH][nH]c(=O)c2c1 | inconclusive [activator, partial curve, poor fit] | 
